According to PubChem BioAssay AID1745853 (National Center for Advancing Translational Sciences (NCATS), 2022):
Some of the results follow. The main result of the screen is listed elsewhere. These columns were measured beside it and carry no call.

What was measured:
Test in all cases: Primary Screen for Target Class Profiling of Small Molecule Inhibitors of Methyltransferases
[1] = target: Glycine N-methyltransferase (Homo sapiens) (UniProt Q14749); conditions: purified enzyme, MTase-Glo SAH luminescence; measured here: GNMT inhibition; at 40 µM; stronger effect = lower value
In short: (§1)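 Each enzyme was assayed with SAM and its substrate. SAH formation detected by MTase-Glo luminescence; single-point 40 uM screen[…].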

[2] = target: Guanidinoacetate N-methyltransferase (Homo sapiens) (UniProt Q14353); conditions: purified enzyme, MTase-Glo SAH luminescence; measured here: GAMT inhibition; at 40 µM; stronger effect = lower value
In short: as §1

[3] = target: Histamine N-methyltransferase (Homo sapiens) (UniProt P50135); conditions: purified enzyme, MTase-Glo SAH luminescence; measured here: HNMT inhibition; at 40 µM; stronger effect = lower value
In short: as §1

[4] = target: Nicotinamide N-methyltransferase (Homo sapiens) (UniProt P40261); conditions: purified enzyme, MTase-Glo SAH luminescence; measured here: NNMT inhibition; at 40 µM; stronger effect = lower value
In short: as §1

[5] = target: Phenylethanolamine N-methyltransferase (Homo sapiens) (UniProt P11086); conditions: purified enzyme, MTase-Glo SAH luminescence; measured here: PNMT inhibition; at 40 µM; stronger effect = lower value
In short: as §1
% is scaled to controls: 0 for no effect and ±100 for the full control effect.

Compound | activity change, negative = inhibition [1] [%] | activity change, negative = inhibition [2] [%] | activity change, negative = inhibition [3] [%] | activity change, negative = inhibition [4] [%] | activity change, negative = inhibition [5] [%]
CC(C)CCn1c(=O)c2ccc(C(=O)NC3CCCC3)cc2n2c(=O)n(CC(=O)Nc3ccccc3)nc12 | 2.98 | 0 | 5.16 | -2.28 | -4.33
COc1ccc(-c2cc3n(n2)CC(C)(C(=O)NCc2ccccc2)N(Cc2ccccc2F)C3=O)cc1 (stereo not given) | 5.23 | 3.86 | 5.05 | 1.1 | 1.24
COCCN(C)C[C@@H]1CN(C(=O)c2nc(-c3ccccc3)[nH]c2C)C[C@@H]1CO | -5.55 | -6.67 | -4.41 | -6.54 | -3.31
O=C(CCc1nnc2n(Cc3ccccc3)c(=O)c3ccccc3n12)NCCc1ccc(Cl)cc1 | -9.13 | 5.34 | 4.59 | 7.05 | -1.28
CC(C)CNC(=O)c1ccc2c(=O)n(CC(C)C)c3nn(CC(=O)NC(C)C)c(=O)n3c2c1 | 4.47 | 0.046 | 5.03 | 7.41 | 3.09
CCOC(=O)c1cc2n(n1)CC(C)(C(=O)NC1CCC(C)CC1)N(c1ccc(NC(C)=O)cc1)C2=O (stereo not given) | -2.67 | 1.85 | -0.702 | -2.46 | -2.52
Cc1cc(C)cc(N2C(=O)c3cc4sccc4n3CC2(C)C(=O)NC2CCCCC2C)c1 (stereo not given) | -6.51 | 5.94 | -4.22 | -2.71 | -3.59
CC(C)n1c(=O)c2ccc(C(=O)NC3CCCC3)cc2n2c(=O)n(CC(=O)c3ccc(Cl)cc3)nc12 | -2.1 | -10.5 | 2.76 | -8.39 | -2.79
CN(C)Cc1c(C(=O)NCCOc2ccc(C(=O)NO)cc2)oc2ccccc12 | 0.967 | 2.61 | -20.8 | -5.67 | 6.88
CC(C)NCC(O)COc1ccc(COCCOC(C)C)cc1 (stereo not given) | -12.9 | -1.37 | -3.84 | -12.4 | -1.92
COC(=O)c1cc2n(n1)CC(C)(C(=O)NC1CCCCCC1)N(Cc1ccc(C)cc1)C2=O (stereo not given) | -3.34 | 3.76 | 1.42 | -5.72 | -3.46
CC1CCC(NC(=O)c2ccc3c(=O)nc4c(-c5cccc(F)c5)n[nH]n4c3c2)CC1 (stereo not given) | -11.8 | 5.57 | -4.28 | 1.46 | -2.42
CC1(C)CC(=O)c2c(C(F)(F)F)nn(-c3ccc(C(N)=O)c(NC4CCC(OC(=O)CN)CC4)c3)c2C1 (stereo not given) | -12.2 | -17.2 | 5.41 | -56.4 | -7.01
CCc1cc2c(cc3n2CC(C)(C(=O)NC2CCCCCC2)N(Cc2ccc(OC)cc2)C3=O)s1 (stereo not given) | -7.06 | 0.015 | -3.21 | -3.71 | -4.32
O=C(O)CCc1cc2ccoc2cc1O[C@@H]1O[C@H](CO[C@@H]2OC[C@](O)(CO)[C@H]2O)[C@@H](O)[C@H](O)[C@H]1O | 0 | 7.61 | 8.72 | -6.11 | 3.09
NCCCNc1ccc(Nc2nccc(Nc3cc(C4CC4)[nH]n3)n2)cc1 | -19.1 | -0.147 | -86.9 | -44.7 | -15.4
O=C(Cn1c(=O)oc2cc(S(=O)(=O)N3CCCC3)ccc21)NCC1COc2ccccc2O1 (stereo not given) | -4.45 | 3.62 | -3.68 | -0.986 | -12.9
COc1ccc2c(c1)CC(NS(=O)(=O)c1ccc(Cl)cc1)CO2 (stereo not given) | -9.66 | -1.99 | 0.066 | -4.28 | -2.62
CC(=O)N1CCn2c(nnc2-c2ccccc2)C1 | -4.71 | -8.66 | -2.54 | -14.4 | -3.99

Compound | activity change, negative = inhibition [1] [%] | activity change, negative = inhibition [2] [%] | activity change, negative = inhibition [3] [%] | activity change, negative = inhibition [4] [%] | activity change, negative = inhibition [5] [%]
CCc1ccc(N2C(=O)c3cc4occc4n3CC2(C)C(=O)NC2CCCCC2C)cc1 (stereo not given) | -8.19 | 0.433 | -4.64 | -0.314 | -5.18
CCOC(=O)c1cc2n(n1)CC(C)(C(=O)NC1CCCCC1)N(CCCc1ccccc1)C2=O (stereo not given) | 5.42 | 0 | -0.738 | 1.5 | 6.61
O=C(NCc1ccc2c(c1)OCO2)c1csc(N2CCN(c3ccc(F)cc3)CC2)n1 | 0.441 | -0.359 | -1.47 | -5.25 | -2.55
O=C(Cn1ccc2cc(S(=O)(=O)N3CCCC3)ccc21)NCc1cccc(Br)c1 | 2.29 | 0 | 2.04 | -6.84 | -12.8
COc1ccc(C)cc1NC(=O)Cn1c(=O)oc2cc(S(=O)(=O)N3CC(C)CC(C)C3)ccc21 (stereo not given) | 14.9 | 0 | 11.5 | 4.76 | 2.03
Cc1cc2c(cc1S(=O)(=O)Nc1ccc(F)c(F)c1)n(C)c(=O)n2C | 6.82 | 0 | 6 | 3.96 | 2.14
CCN1C(=O)CCc2cc(NC(=O)CC(C)C)ccc21 | -4.2 | -2.89 | 0.182 | -8.01 | -5.19
CC(C)CCn1c(=O)c2ccc(C(=O)NC3CCCC3)cc2n2c(SCC(=O)c3ccccc3)nnc12 | 2.7 | 0 | 9.73 | -3.24 | 5.73
COc1cccc(C2c3cccn3-c3sc4c(c3CN2C(=O)Nc2cccc(C)c2)CCCC4)c1 (stereo not given) | 1.06 | 0 | 5.33 | -10.9 | 4.4
CC(C)=CCC/C(C)=C/CO[C@@H]1O[C@H](CO[C@@H]2O[C@@H](CO)[C@H](O)[C@H]2O)[C@@H](O)[C@H](O)[C@H]1O | 5.36 | 4.6 | 13.7 | -6.1 | 6.18
COCCNC(=O)C(NC(=O)c1ccccc1)C1CCN(C(=O)C2CC2)CC1 (stereo not given) | -4.08 | -3.97 | -1.03 | -8.69 | -1.34
CN(C)CCN(C)[C@@H]1[C@H](O)[C@H](CO)O[C@@H]1CN(Cc1ccc(Cl)cc1)Cc1cccc(Cl)c1 | -5.02 | -8.77 | -15 | -26.1 | -8.14
Cc1cc(C)cc(N2C(=O)CSc3c(c4ccccc4n3C)C2C(=O)NCc2ccccc2)c1 (stereo not given) | 9.04 | 0 | 3.75 | 4.34 | 4.13
CC(C)CCn1c(=O)c2ccc(C(=O)NC3CCCC3)cc2n2c(=O)n(Cc3ccccc3F)nc12 | 2.72 | 0 | 2.29 | 1.93 | 4.14
C[C@@H]1C(=O)O[C@H]2[C@H]1CC[C@@]1(C)Cc3sc(NC(=O)COc4ccccc4)nc3[C@@H](C)[C@H]21 | -8.33 | -6 | -6.38 | -9.86 | -5.27
C/C=C(/C)C(=O)OC1C(OC(C)=O)C23C(O)OC4(CCC5C6(C)CCC(OC7OC(C(=O)O)C(O)C(OC8OC(CO)C(O)C(O)C8OC8OC(C)C(O)C(O)C8OC8OCC(O)C(O)C8O)C7OC7OC(CO)C(O)C(O)C7O)C(C)(C)C6CCC5(C)C4(C)CC2OC(C)=O)C3CC1(C)C (stereo not given) | 4.31 | 2.88 | -0.109 | -4.95 | 6.11
COCCCN1C(=O)c2cc3occc3n2CC1(C)C(=O)NC1CCCCC1 (stereo not given) | 0.758 | 5.7 | 2.99 | 9.23 | 1.41
CC(C)(C)OC(=O)NCCCC(=O)NCc1ccnc2[nH]ccc12 | -6.12 | -5.67 | -6.05 | -14.9 | -8.97
Cc1occc1C(=O)N1CCCC(O)(CNC(=O)N2CCOCC2)CC1 (stereo not given) | -0.633 | -0.754 | 3.82 | 1.2 | 3.22

Compound | activity change, negative = inhibition [1] [%] | activity change, negative = inhibition [2] [%] | activity change, negative = inhibition [3] [%] | activity change, negative = inhibition [4] [%] | activity change, negative = inhibition [5] [%]
O=C(CCn1ccc2cc(S(=O)(=O)N3CCCC3)ccc21)NCCC1=CCCCC1 | -1.16 | 2.41 | 3.63 | -1.41 | 0.377
COc1ccc(OC2CN(Cc3cccnc3)C2)cc1 | -3.9 | -2.06 | -2.15 | -3.38 | 0.386
CC(C)CCn1c(=O)c2ccc(C(=O)NC(C)C)cc2n2c(=O)n(CC(=O)NC3CCCC3)nc12 | 4.94 | 0 | 0.294 | -2.3 | 2.75
O=C(Cc1ccccn1)N1CCC(C(=O)N2CCC(c3nc4ncccc4[nH]3)CC2)CC1 | -5.28 | -5.92 | -4.44 | -11.9 | -23.4
COCCN1CCN(Cc2ccc(-c3n[nH]c4c3C(=O)c3c(NC(=O)NN5CCOCC5)cccc3-4)cc2)CC1 | -16 | -3.9 | -9.93 | -43.1 | -29.9
COc1ccc(CNC(=O)c2ncn3c2C(=O)N(C2CC2)C(C)(C(=O)NCc2ccccc2Cl)C3)cc1 (stereo not given) | -1.65 | 0.67 | 4.71 | -0.785 | 4.76
CC(=O)Nc1ccc(OCC(=O)N2CCC(C)CC2)nc1 | -5.22 | 0.315 | 0.406 | 3.92 | 2.28
Cc1ccc(Cn2c(=O)c3ccccc3n3c(-c4cccc(C)c4)nnc23)cc1 | 0.738 | -42.6 | 7.18 | 6.21 | 0.389
COc1ccc(CN2C[C@@H](CO)[C@H](c3ccncc3)C2)c(OC)c1 | -6 | -2.7 | -24 | -50.2 | -2.9
C=CCOc1cccc(-c2nnc(CCC(=O)NCc3ccccc3)c(=O)[nH]2)c1 | -13.8 | -2.19 | -2.68 | -7.25 | -20.6
COc1cccc2cc3c(c(O[C@@H]4O[C@H](CO[C@@H]5O[C@H](CO)[C@@H](O)[C@H](O)[C@H]5O)[C@@H](O)[C@H](O)[C@H]4O)c12)C(C)OC3=O (stereo not given in full) | -4.14 | -15.2 | 3.5 | -19.1 | -47.9
CCOc1ccccc1CNC(=O)c1ncn2c1C(=O)N(CC)C(C)(C(=O)NC1CCCC1)C2 (stereo not given) | -0.119 | 0 | 10.2 | 5.74 | 4.63
CCCn1c(=O)c2ccc(C(=O)NC3CCCC3)cc2n2c(=O)n(CC(=O)N(C)c3ccccc3)nc12 | 7.2 | 1.71 | 14 | 2.12 | 6.41
COc1ccc(C(=O)Nc2ncc(-c3ccc(C(=O)O)cc3)s2)cc1 | -16.8 | 1.52 | 10.5 | -10.8 | 4.04
CCOC(=O)c1cc2n(n1)CC(C)(C(=O)NCc1ccc(C)cc1)N(CCc1ccc(Cl)cc1)C2=O (stereo not given) | 2.14 | 0 | 4.2 | -2.11 | 1.4
COc1ccc(-n2ncc3c2CC(C)(C)CC3NC(=O)c2cc(C)[nH]n2)cc1 (stereo not given) | -7.85 | -8.96 | -5.74 | -21.6 | 7.11
Nc1nc(F)nc2c1ncn2[C@@H]1O[C@H](CO)[C@@H](O)[C@@H]1O | 5.96 | 9.72 | 11 | -5.26 | 6.14
Cc1c(OCC(F)(F)F)ccnc1CS(=O)c1nc2ccccc2[nH]1 (stereo not given) | -64.3 | 7 | -2.93 | -7.54 | 3.98
